This is one part of the list. Single values are uncertain, as repeats are few or missing.
Key:
Assay in all cases: cell count relative to DMSO control; melanoma cells; higher = more viable cells
Conditions in all cases: library dose: standard library concentration; 72 h
G361 = system: G361
IPC-298 = system: IPC-298
IST-MEL1 = system: IST-MEL1
LB2518-MEL = system: LB2518-MEL
LOXIMVI = system: LOXIMVI
MEL-HO = system: MEL-HO
MZ2-MEL = system: MZ2-MEL
MeWo = system: MeWo
RPMI7951 = system: RPMI7951
RVH-421 = system: RVH-421
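Also: cells treated in 1,536-well plates, then fixed and DAPI-stained, with nuclei counted from automated high-throughput microscope images.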

N.N.[Cl][Pt][Cl] [cisplatin] + CCc1ccc(CCOc2ccc(CC3SC(=O)NC3=O)cc2)nc1 [pioglitazone] (first compound 8 µM, partner dose 10 µM)
cell count (G361): 68% | cell count (IPC-298): 71.8% | cell count (IST-MEL1): 85.1% | cell count (LB2518-MEL): 66.7% | cell count (LOXIMVI): 70.7% | cell count (MEL-HO): 83.3% | cell count (MZ2-MEL): 75% | cell count (MeWo): 111% | cell count (RPMI7951): 72.3% | cell count (RVH-421): 75.7%

N.N.[Cl][Pt][Cl] [cisplatin] + CCCS(=O)(=O)Nc1ccc(F)c(C(=O)c2c[nH]c3ncc(Cl)cc23)c1F [PLX4720] (first compound 8 µM, partner dose 0.4 µM)
cell count (G361): 83.5% | cell count (IPC-298): 92.9% | cell count (IST-MEL1): 95.5% | cell count (LB2518-MEL): 103% | cell count (LOXIMVI): 73.9% | cell count (MEL-HO): 85.4% | cell count (MZ2-MEL): 79.2% | cell count (MeWo): 82% | cell count (RPMI7951): 107% | cell count (RVH-421): 65.4%

Cn1cc(C2=C(c3cn(C4CCN(Cc5ccccn5)CC4)c4ccccc34)C(=O)NC2=O)c2ccccc21 [Enzastaurin] + CN(c1ncccc1CNc1nc(Nc2ccc3c(c2)CC(=O)N3)ncc1C(F)(F)F)S(C)(=O)=O [PF562271] (first compound 4 µM, partner dose 0.4 µM)
cell count (G361): 66.5% | cell count (IPC-298): 70.5% | cell count (IST-MEL1): 70.4% | cell count (LB2518-MEL): 68.9% | cell count (LOXIMVI): 137% | cell count (MEL-HO): 88.8% | cell count (MZ2-MEL): 65% | cell count (MeWo): 82.8% | cell count (RPMI7951): 42.8% | cell count (RVH-421): 49.6%

C[C@]12O[C@H](C[C@]1(O)CO)n1c3ccccc3c3c4c(c5c6ccccc6n2c5c31)CNC4=O [Lestaurtinib] + CS(=O)(=O)CCNCc1ccc(-c2ccc3ncnc(Nc4ccc(OCc5cccc(F)c5)c(Cl)c4)c3c2)o1 [lapatinib] (first compound 0.02 µM, partner dose 4 µM)
cell count (G361): 45% | cell count (IPC-298): 74% | cell count (IST-MEL1): 97.9% | cell count (LB2518-MEL): 65.5% | cell count (LOXIMVI): 110% | cell count (MEL-HO): 68.5% | cell count (MZ2-MEL): 46.4% | cell count (MeWo): 71.8% | cell count (RPMI7951): 29% | cell count (RVH-421): 84.9%

C[As](C)SC[C@H](NC(=O)CC[C@H](N)C(=O)O)C(=O)NCC(=O)O [Darinaparsin] + Oc1nc(-c2ccc(C(F)(F)F)cc2)nc2c1CSCC2 [XAV939] (first compound 2 µM, partner dose 10 µM)
cell count (G361): 75.4% | cell count (IPC-298): 88.3% | cell count (IST-MEL1): 90% | cell count (LB2518-MEL): 82.3% | cell count (LOXIMVI): 80.1% | cell count (MEL-HO): 89.3% | cell count (MZ2-MEL): 91.4% | cell count (MeWo): 83.1% | cell count (RPMI7951): 86.8% | cell count (RVH-421): 103%

C[C@]12O[C@H](C[C@]1(O)CO)n1c3ccccc3c3c4c(c5c6ccccc6n2c5c31)CNC4=O [Lestaurtinib] + O=c1cc(-c2cccc3c2Sc2ccccc2S3)oc(N2CCOCC2)c1 [KU55933] (first compound 0.02 µM, partner dose 5 µM)
cell count (G361): 74.5% | cell count (IPC-298): 77.1% | cell count (IST-MEL1): 85.2% | cell count (LB2518-MEL): 46.7% | cell count (LOXIMVI): 94.6% | cell count (MEL-HO): 72.6% | cell count (MZ2-MEL): 89.1% | cell count (MeWo): 67.7% | cell count (RPMI7951): 64.9% | cell count (RVH-421): 62.5%

C[C@]12O[C@H](C[C@]1(O)CO)n1c3ccccc3c3c4c(c5c6ccccc6n2c5c31)CNC4=O [Lestaurtinib] + N#Cc1c(O)c2c(-c3ccc(-c4ccccc4O)cc3)csc2[nH]c1=O [A769662] (first compound 0.02 µM, partner dose 10 µM)
cell count (G361): 99.5% | cell count (IPC-298): 92.7% | cell count (IST-MEL1): 97.9% | cell count (LB2518-MEL): 77.8% | cell count (LOXIMVI): 99.7% | cell count (MEL-HO): 101% | cell count (MZ2-MEL): 104% | cell count (MeWo): 76.9% | cell count (RPMI7951): 100% | cell count (RVH-421): 132%

C[C@]12O[C@H](C[C@]1(O)CO)n1c3ccccc3c3c4c(c5c6ccccc6n2c5c31)CNC4=O [Lestaurtinib] + CN(NC(=O)CC(=O)NN(C)C(=S)c1ccccc1)C(=S)c1ccccc1 [STA4783] (first compound 0.02 µM, partner dose 0.03 µM)
cell count (G361): 31.8% | cell count (IPC-298): 59.9% | cell count (IST-MEL1): 8.68% | cell count (LB2518-MEL): 20.2% | cell count (LOXIMVI): 55% | cell count (MEL-HO): 79.8% | cell count (MZ2-MEL): 109% | cell count (MeWo): 22.6% | cell count (RPMI7951): 75.1% | cell count (RVH-421): 51.1%

N.N.[Cl][Pt][Cl] [cisplatin] + O=C(CCCCCCC(=O)Nc1ccccc1)NO [vorinostat] (first compound 8 µM, partner dose 0.4 µM)
cell count (G361): 64.6% | cell count (IPC-298): 92.2% | cell count (IST-MEL1): 94.6% | cell count (LB2518-MEL): 74.5% | cell count (LOXIMVI): 44.5% | cell count (MEL-HO): 77% | cell count (MZ2-MEL): 99.4% | cell count (MeWo): 64.5% | cell count (RPMI7951): 58% | cell count (RVH-421): 57.1%

N.N.[Cl][Pt][Cl] [cisplatin] + COc1cc(Nc2ncc(F)c(Nc3ccc4c(n3)NC(=O)C(C)(C)O4)n2)cc(OC)c1OC [Tamatinib] (first compound 8 µM, partner dose 2 µM)
cell count (G361): 72.8% | cell count (IPC-298): 80% | cell count (IST-MEL1): 74.2% | cell count (LB2518-MEL): 60.1% | cell count (LOXIMVI): 25.9% | cell count (MEL-HO): 77.9% | cell count (MZ2-MEL): 106% | cell count (MeWo): 79.9% | cell count (RPMI7951): 49.8% | cell count (RVH-421): 78.8%

N.N.[Cl][Pt][Cl] [cisplatin] + O=C(O)C(=O)Nc1sc2c(c1C(=O)O)CCNC2 [TCS401] (first compound 8 µM, partner dose 8.33333 µM)
cell count (G361): 75.4% | cell count (IPC-298): 91.8% | cell count (IST-MEL1): 101% | cell count (LB2518-MEL): 90.2% | cell count (LOXIMVI): 101% | cell count (MEL-HO): 85.4% | cell count (MZ2-MEL): 86.1% | cell count (MeWo): 99.7% | cell count (RPMI7951): 117% | cell count (RVH-421): 63.1%

Source: the supplement of paper PMC4604168 (melanoma cell lines)
